{
  "source": "patent US20170226204A1",
  "about": "(PERONGEN BIOTHERAPEUTICS SUZHOU, published 2017)",
  "binders": {"B1": {"name": "nanobody VHH-10 (clone 2) (VHH, not shown: small tags and cut ends)", "VHH": "DVQLQESGGGSVQAGGSLRLSCAASGYTHSSYCMAWFRQAPGREREGVASIDSDGTTSYADSVKGRFTISQDNAKNTLYLQMNSLKPEDTAMYYCAARFGPMGCVDLSTLSFGHWGQGTQVTVSI", "notes": "also called clone VHH-10"}, "B2": {"name": "nanobody VHH-6 (clone 5) (VHH, not shown: small tags and cut ends)", "VHH": "DVQLQESGGGLVQAGGSLRLSCAVSGYPYSSYCMGWFRQAPGKEREGVAAIDSDGRTRYADSVKGRFTISQDNAKNTLYLQMNRMKPEDTAMYYCAARFGPMGCVDLSTLSFGHWGQGTQVTVSI", "notes": "also called clone VHH-6; parental nanobody VHH6"}},
  "target": "T1, human CD7 molecule (human, UniProt P09564 26-240)",
  "T1 construct": "whole, on cells; also called CD7 protein",
  "T1 sequence (looked up)": "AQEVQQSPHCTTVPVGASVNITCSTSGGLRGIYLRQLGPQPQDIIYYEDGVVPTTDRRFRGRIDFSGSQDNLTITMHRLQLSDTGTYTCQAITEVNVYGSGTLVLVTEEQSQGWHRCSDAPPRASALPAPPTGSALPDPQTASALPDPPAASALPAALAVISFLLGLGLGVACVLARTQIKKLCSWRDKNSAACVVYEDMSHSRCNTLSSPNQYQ",
  "assay": "flow cytometry saturation binding on CD7-positive Jurkat cells, APC anti-HA detection",
  "data": [
    {"binder": "B1", "values": [
      {"measurement": "Kd", "result": 29.6, "unit": "nM"}
    ]},
    {"binder": "B2", "values": [
      {"measurement": "Kd", "result": 15.4, "unit": "nM"}
    ]}
  ]
}
